Data on 92 compounds can be found in PubChem BioAssay AID360 (National Center for Advancing Translational Sciences (NCATS), 2006).

Each structure is given as a SMILES string. Among all 48,000 compounds or so, about 550 (1.1%) were called active. Not shown: some 4% with an inconclusive outcome. Rule as the data show it: active = potency below about 15 µM; inconclusive = mostly about 16 µM to 33 µM; inactive = weaker than that. The list shows a part of the results.
Potency is read from the fitted curve at half-maximal effect.

This assay concerns the target Lysosomal acid glucosylceramidase (Homo sapiens) (UniProt P04062). Nature of the assay: Glucocerebrosidase.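 Also: the screen sought inhibitors.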 The settings on record: purified enzyme, resorufin glucoside fluorescence (screen aimed at inhibitors), 20 min. The method in brief: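 Normal human glucocerebrosidase (0.2 nM final) was assayed with resorufin β-D-glucopyranoside (30 uM final) in 50mM citric acid/KH2PO4, 10mM sodium taurocholate, 0.01% tween-20, pH 5.9. Compounds were titrated; fluorescence (Ex 548, Em 600) read after 20 min at RT.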
Sequence of UniProt P04062 (P04062 whole entry, looked up): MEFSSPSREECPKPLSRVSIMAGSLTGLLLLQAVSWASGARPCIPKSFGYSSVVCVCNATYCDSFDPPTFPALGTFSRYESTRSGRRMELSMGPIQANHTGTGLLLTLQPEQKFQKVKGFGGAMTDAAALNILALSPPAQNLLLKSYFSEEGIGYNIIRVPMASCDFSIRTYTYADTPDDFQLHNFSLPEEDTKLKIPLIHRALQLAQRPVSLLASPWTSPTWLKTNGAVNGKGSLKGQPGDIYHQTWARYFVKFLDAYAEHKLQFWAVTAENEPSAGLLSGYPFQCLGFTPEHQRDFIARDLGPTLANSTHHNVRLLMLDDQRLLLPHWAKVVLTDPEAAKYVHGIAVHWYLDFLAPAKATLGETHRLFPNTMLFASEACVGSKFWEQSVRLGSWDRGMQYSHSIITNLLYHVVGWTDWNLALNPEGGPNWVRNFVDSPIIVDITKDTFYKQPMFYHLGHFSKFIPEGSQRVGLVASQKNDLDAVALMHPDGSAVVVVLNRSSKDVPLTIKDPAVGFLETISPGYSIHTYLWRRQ
For the compound `COc1ccc2sc(N3C(=O)C4CC=C(C)CC4C3=O)nc2c1` (configuration not stated), the Potency was inactive: > 76.9 µM.
Turning to `COc1ccc(NC(=O)CNS(=O)(=O)c2cccs2)cc1`, the Potency is inactive: > 76.9 µM.
As for `COc1cc(OC)cc(C(=O)N2CCN(C(=O)c3ccc(OC)c(OC)c3)CC2)c1`, the figure is inactive: > 76.9 µM; as for `O=C(NC1CCN(C(=O)Nc2cccc(F)c2)CC1)C1CCCCC1`, inactive: > 76.9 µM; as for `CCOc1ccc(NC(=O)CCN2CCCCC2)cc1`, inactive: > 76.9 µM.
Turning to `CCCCc1nc2ccccc2n1Cc1nnc2n1-c1ccccc1SC2`, the Potency is inactive: > 76.9 µM.
As for `C=C(C)Cn1c(C(C)NC(=O)CCC)nc2ccccc21` (configuration not stated), the figure is inactive: > 76.9 µM; as for `O=C(c1cc(-c2cccs2)on1)N1CCc2ccccc2C1`, inactive: > 76.9 µM; as for `O=C(Nc1ncc2c(n1)CC(c1ccco1)CC2=O)c1ccccc1` (configuration not stated), inactive: > 76.9 µM.
As for `CCCNS(=O)(=O)c1cc(Br)cc2c1N(C(=O)CC)CC2`, the figure is inactive: > 76.9 µM; as for `COc1cc(C2C(C#N)=C(N)Oc3n[nH]c(-c4ccncc4)c32)cc(OC)c1OC` (configuration not stated), inactive: > 76.9 µM; as for `CCOC(=O)c1[nH]c(C)c(C(=O)N2CCc3ccccc32)c1C`, inactive: > 76.9 µM.
In the case of `Nc1nc(NC(=O)CCCC(=O)O)nn1-c1ccccc1` it was inactive: > 76.9 µM; in that of `Cc1cc(C)n(CC(=O)NC2CCCCC2)n1`, inactive: > 76.9 µM.
`COc1cc(OC)c(N2CC34C=CC(O3)C(C(=O)O)C4C2=O)cc1Cl` (configuration not stated): the Potency was inactive: > 76.9 µM.
In the case of `O=S(=O)(c1ccc(N2CCCC2c2nc3ccccc3s2)nc1)N1CCOCC1` (configuration not stated) it was inactive: > 76.9 µM.
In the case of `O=C1C=C(OCc2ccccc2)CN1` it was inactive: > 76.9 µM; in that of `Cc1cc(C)nc(N2CCN(c3ncnc4c3cnn4Cc3ccc(Cl)cc3Cl)CC2)n1`, inactive: > 76.9 µM.
In the case of `Cc1sc(NC(=O)CSc2nnc3scc(-c4ccccc4)n23)c(C#N)c1C` it was inactive: > 76.9 µM.
In the case of `Cc1nn(-c2ccccc2)c2sc(C(=O)N3CCOCC3)cc12`, the Potency is inactive: > 76.9 µM.
In the case of `CCOC(=O)c1c(N)c(C#N)c2n1CCCCC2` it was inactive: > 76.9 µM.
In the case of `O=S(=O)(CC(CN1CCCC1)N1CCCC1)c1ccc2ccccc2c1` (configuration not stated) it was inactive: > 76.9 µM; in that of `Cc1cc(C(=O)CSc2nnc(-c3ccc(OC(F)F)cc3)o2)c(C)n1Cc1cccs1`, inactive: > 76.9 µM.
Take `O=C(c1ccccc1F)N(Cc1ccccc1)C1CCS(=O)(=O)C1` (configuration not stated): the Potency is inactive: > 76.9 µM.
As for `O=C(C1CCCC1)N(c1ccccc1)C1C=CS(=O)(=O)C1` (configuration not stated), the figure is inactive: > 76.9 µM; as for `CCOc1ccc(NC(=O)CN2CCN(CC(=O)Nc3cccc(F)c3)CC2)cc1`, inactive: > 76.9 µM.
In the case of `Cc1ccc(C(c2nnnn2C(C)(C)C)N2CCc3ccccc3C2)cc1` (configuration not stated) it was inactive: > 76.9 µM; in that of `C=CCn1c(NCc2ccc3c(c2)OCO3)nc2ccccc21`, inactive: > 76.9 µM; in that of `CC(C)(C)OC(=O)N1CCC[C@H]1c1nnc(SCc2c(Cl)cccc2Cl)o1`, inactive: > 76.9 µM.
As for `Cc1nc2ccc(-c3ccccc3)cc2o1`, the figure is inactive: > 76.9 µM; as for `CCCCCn1c(N)c(C#N)c2nc3ccccc3nc21`, active: 2.68 µM.
For `CS(=O)(=O)c1ccc(C(=O)NC2CCOC2=O)cc1` (configuration not stated), the Potency is inactive: > 76.9 µM.
As for `O=C(CN(Cc1ccc2c(c1)OCO2)C(=O)CNS(=O)(=O)c1ccccc1)NCc1ccco1`, the figure is inactive: > 76.9 µM; as for `COc1cc2cc(C(c3nnnn3C(C)(C)C)N3CCc4ccccc43)c(=O)[nH]c2cc1OC` (configuration not stated), inactive: > 76.9 µM; as for `O=C(CN1C(=O)c2ccccc2S1(=O)=O)N1CCN(c2cccc(Cl)c2)CC1`, inactive: > 76.9 µM.
In the case of `Cc1cc(C)c2cc(CN(CCN3CCCC3)C(=O)Nc3ccc(F)cc3)c(=O)[nH]c2c1` it was inactive: > 76.9 µM; in that of `CC(Sc1ccccc1)C(=O)Nc1cccc(N(C)S(C)(=O)=O)c1` (configuration not stated), inactive: > 76.9 µM.
Consider `CCOP(=O)(c1ccc(N(C)C)cc1)C(O)c1ccc(Cl)cc1` (configuration not stated), for which the Potency is inactive: > 76.9 µM.
As to `O=C(C1=C(O)C(=O)N(Cc2ccccc2)C1c1ccncc1)c1ccco1` (configuration not stated), the Potency was inactive: > 76.9 µM.
Take `CN=C(Nc1cc(C)nn1CCC#N)c1ccccc1F`: the Potency is inactive: > 76.9 µM.
In the case of `Cc1cc(S(=O)(=O)Nc2ccccc2C(=O)O)ccc1Cl` it was inactive: > 76.9 µM.
Consider `COc1ccc(-n2nc(C(=O)NCC(=O)N3CCN(c4ccccn4)CC3)c3ccccc3c2=O)cc1`, for which the Potency is inactive: > 76.9 µM.
As for `CC(=O)Nc1ccc(S(=O)(=O)NCC2CCC(C(=O)N3CCN(c4ccccn4)CC3)CC2)cc1` (configuration not stated), the entry is “inactive”.
In the case of `CCCCOC(=O)Nc1nnc(CCOCC)s1` it was inactive: > 76.9 µM; in that of `O=C(CCCCCn1c(=O)[nH]c2ccsc2c1=O)N1CCCCC1`, inactive: > 76.9 µM.
With `O=C(CN(Cc1ccccc1)C(=O)CCC(=O)Nc1ccccn1)NCc1ccco1`, the Potency was inactive: > 76.9 µM.
In the case of `O=C(c1cccs1)N1CCN(S(=O)(=O)Cc2ccccc2)CC1` it was inactive: > 76.9 µM; in that of `COc1ccccc1-c1nc(C#N)c(N2CCc3ccccc3C2)o1`, inactive: > 76.9 µM.
In the case of `CCC1C2CN(C(C)=O)CC=C2C(C#N)=C(N)C1(C#N)C#N` (configuration not stated) it was inactive: > 76.9 µM; in that of `CC(C)OC(=O)CSc1nnc(-c2cnccn2)n1-c1ccc(Cl)cc1`, inactive: > 76.9 µM.
As for `COc1cccc(-c2nc(-c3ccccn3)no2)c1OC`, the figure is inactive: > 76.9 µM; as for `Cc1ccc(Cn2c(-c3nonc3N)nc3ccccc32)cc1`, inactive: > 76.9 µM.
For `Cc1ccc(C(CC(=O)N2CCCC2)c2ccccc2)c(O)c1C` (configuration not stated), the Potency is inactive: > 76.9 µM.
In the case of `O=C(c1cnsn1)N1CCN(c2ccccc2)CC1` it was inactive: > 76.9 µM; in that of `O=C(COc1ccccc1)Nc1ccccc1N1CCN(c2ccccc2)CC1`, inactive: > 76.9 µM.
In the case of `COc1ccc2cc(CN(Cc3ccco3)C(c3nnnn3C3CCCCC3)C(C)C)c(=O)[nH]c2c1` (configuration not stated) it was “inactive”; in that of `Cc1cn(C2C=CC(CO)O2)c(=O)[nH]c1=O` (configuration not stated), inactive: > 76.9 µM.
In the case of `CCOC(=O)c1cccc(NC(=O)Nc2cc(OC)ccc2OC)c1` it was inactive: > 76.9 µM; in that of `CCc1cccc(NC(=O)c2ccc(Br)o2)c1`, inactive: > 76.9 µM.
As to `CCc1ccc(N2C(=O)C3ON(c4ccccc4)C(c4ccco4)C3C2=O)cc1` (configuration not stated), the Potency is inactive: > 76.9 µM.
As for `COc1ccccc1CNC(=O)CSc1nc2nc(C)cc(C)n2n1`, the figure is inactive: > 76.9 µM.
Turning to `COc1cc(-c2noc(CCC(=O)Nc3cccnc3)n2)cc(OC)c1OC`, the Potency was inactive: > 76.9 µM.
In the case of `Cc1onc(-c2c(Cl)cccc2Cl)c1C(=O)NC(C)(C)CO` it was inactive: > 76.9 µM; in that of `Nc1nnc(-c2ccncc2)s1`, inactive: > 76.9 µM; in that of `O=C1Nc2ccccc2C(O)(C(=O)NC2CC2)N1c1ccc(Cl)c(Cl)c1` (configuration not stated), inactive: > 76.9 µM.
As for `CC(C)c1[nH]nc2c1C(C(C)C)C(C#N)=C(N)O2` (configuration not stated), the figure is inactive: > 76.9 µM; as for `CCc1ccccc1NC(=O)Cn1nnc(-c2cccnc2)n1`, inactive: > 76.9 µM.
In the case of `Cc1cc2c(nn1)CCC/C2=N\O` it was inactive: > 76.9 µM; in that of `CC(C)CNS(=O)(=O)c1ccc(CCC(=O)Nc2ccc3c(c2)OCO3)cc1`, inactive: > 76.9 µM.
Consider `CCN(CC)CCCN(C(C)=O)c1nc(-c2cc(OC)ccc2OC)cs1`, for which the Potency was inactive: > 76.9 µM.
As for `O=C(c1ccc2c(c1)OCO2)N(c1ccccc1)C1C=CS(=O)(=O)C1` (configuration not stated), the figure is inactive: > 76.9 µM.
As for `Cc1cc(C)c2oc(=O)cc(CN3CCOCC3)c2c1`, the figure is inactive: > 76.9 µM; as for `Cc1cc(C(=O)CSc2nnc(-c3cccc(F)c3)n2N)c(C)n1Cc1ccc2c(c1)OCO2`, inactive: > 15.4 µM; as for `CCn1c(SCC(=O)N2CCOCC2)nc2oc3c(Cl)cc(Cl)cc3c(=O)c2c1=O`, inactive: > 76.9 µM.
As for `O=C(Cn1c(C(=O)N2CCN(C3CCCCC3)CC2)cc2sccc21)c1ccccc1`, the entry is “inactive”; as for `Cc1nnc(SC(C)C(=O)Nc2ccc3c(c2)OCCO3)s1` (configuration not stated), inactive: > 76.9 µM; as for `Cc1ccc(Cn2nnc3c(=O)n(CC(=O)NCC4CCCO4)cnc32)cc1` (configuration not stated), inactive: > 76.9 µM.
Regarding `COCC(=O)N(Cc1cc2ccccc2[nH]c1=O)c1ccccc1OC`, the Potency is inactive: > 76.9 µM.
In the case of `Cc1c(NC(=O)c2c(F)c(F)c(F)c(F)c2F)c(=O)n(-c2ccccc2)n1C`, the Potency is inactive: > 76.9 µM.
In the case of `Cc1cc(C)n(-c2nc3ccccc3c(=O)n2OCC(=O)OCc2ccccc2)n1` it was inactive: > 76.9 µM.
In the case of `O=C(CC1(O)C(=O)Nc2cc(Cl)cc(Cl)c21)c1ccncc1` (configuration not stated) it was inactive: > 76.9 µM; in that of `CCc1cccc2c(=O)c(C(=O)N3CCCCCC3)c[nH]c12`, inactive: > 76.9 µM; in that of `CC(C)C(C(=O)Nc1nccs1)c1ccccc1` (configuration not stated), inactive: > 76.9 µM.
As for `COCc1nnc(NC(=O)c2ccco2)s1`, the figure is inactive: > 76.9 µM.
As to `COc1ccc(OC)c(C(c2nnnn2Cc2ccccc2)N2CCC(C(N)=O)CC2)c1` (configuration not stated), the Potency was inactive: > 76.9 µM.
For the compound `Cc1cc(NCCCCO)n2c(nc3ccccc32)c1C#N`, the Potency result is “inactive”.
As for `COC(=O)c1ccc(=O)n(-c2ccc(OC)cc2)c1`, the figure is inactive: > 76.9 µM; as for `CCOC(=O)c1c(C)c(C(=O)NCc2cccs2)c(C)n1C`, inactive: > 76.9 µM.
As for `CCCC(=O)Nc1ccc(OCC(=O)OC)cc1`, the figure is inactive: > 76.9 µM; as for `O=C(NCc1ccco1)c1cc(-c2ccc(F)cc2)on1`, inactive: > 76.9 µM.
In the case of `CCOC(=O)c1ccc(NC(=O)c2cnccn2)cc1`, the Potency is inactive: > 76.9 µM.
As for `Cc1ccc2nc(N3CCC(C(=O)O)CC3)nc(-c3ccccc3)c2c1`, the figure is inactive: > 76.9 µM.
